From PubChem BioAssay AID1345083 (National Center for Advancing Translational Sciences (NCATS), 2018)
Screen size: about 94,000 compounds; about 6,200 (6.6%) were called active. Inconclusive means that the source gave no clear call. Such entries were picked first, then a sample of the others. Calls come from the whole dose curve; as a rule, active = well fitted inhibition curve with a large enough effect; inconclusive = small, poorly fitted or top-dose-only effect; inactive = flat fitted curve, though single readings scatter. Where the call is inconclusive, the potency comes from a doubtful curve fit.

Test: Cytotoxic Profiling in HEK 293 Cell Line of Diverse Libraries Using Quantitative High-Throughput Screening; note: nearly all actives have a fitted effect of over 60% in size
Settings: HEK 293 viability, ATP luminescence (CellTiter-Glo), 48-72 h; series mostly up to 115 µM
Outline: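 CellTiter-Glo luminescence (cellular ATP) was read after 48 or 72 hr of compound exposure at 37 degree Celsius. Cells were HEK 293 plated at 250 cells/well.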
Potency is the fitted concentration of half-maximal effect; tags give direction and shape of the fitted curve.

Compound	Potency
O=C1COCCN1c1cc(-c2cnc3[nH]ccc3c2)cn2cncc12	inconclusive: 126 µM [inhibitor, single point]
CC1=C(C(=O)OC(C)C)C(c2ccc([N+](=O)[O-])cc2)N2C(CC(=O)N3CCOCC3)=CSC2=N1 (stereo not drawn)	inconclusive: 7.08 µM [inhibitor, full curve, poor fit]
CC1=C(C(=O)OC(C)C)C(c2ccccc2Cl)CC(=O)N1Cc1cc(F)cc(F)c1 (stereo not drawn)	inconclusive: 35.5 µM [inhibitor, full curve]
O=C(c1ccno1)N1C[C@@H]2OCC(=O)N(Cc3ccc(F)cc3)[C@@H]2C1	inactive
CC1(C)Cc2nc(N3CCOCC3)ncc2C(NC(=O)NC(C)(C)C)C1 (stereo not drawn)	inactive
CCn1ccc2ccc(CN3CCCC(O)(CN4CCCC4)C3)cc21 (stereo not drawn)	inconclusive: 28.2 µM [inhibitor, full curve, poor fit]
O=C(Nc1ccc(-c2cccc(F)c2)cc1)C1CCCN1Cc1ccc(CO)o1 (stereo not drawn)	active: 35.5 µM
Oc1ccccc1CNC[C@H]1O[C@H](Cc2cc(CN3CCCCC3)on2)CC[C@@H]1O	inconclusive: 89.1 µM [inhibitor, partial curve]
O=C1C(OCC2CC2)C2(CCCCC2)N1C1CCN(Cc2cccnc2)CC1 (stereo not drawn)	inconclusive: 100 µM [inhibitor, single point]
O=C(c1ccc(C2CCCN2)s1)N1CCc2nc[nH]c2C1 (stereo not drawn)	inactive
CCn1cc(-c2ccccc2)cc1C(=O)NCc1ccccn1	inconclusive: 100 µM [inhibitor, single point]
O=c1[nH]c(N2CCOCC2)nc2c1CCN(Cc1ccccc1C(F)(F)F)CC2	inconclusive: 31.6 µM [inhibitor, full curve]
COc1ccc(-c2nc(C(=O)N3CCCC3)n3ccccc23)cc1	inconclusive: 112 µM [inhibitor, partial curve, poor fit]
CN(C)C[C@@H]1CN(C2CCOCC2)C[C@H]1NC(=O)c1ccc2ccccc2n1	inconclusive: 79.4 µM [inhibitor, partial curve, poor fit]
Cc1ccc(NC(=O)Cn2nc3n(c2=O)CCCC3)cc1	inactive
COc1ccc(-c2nc(C(C)C)nc3c2CCN(C(=O)c2ccc(F)cc2)CC3)cc1	inconclusive: 50.1 µM [inhibitor, partial curve, poor fit]
CN1Cc2c(cc(N3CCOCC3)nc2-c2cnn(C)c2)C1=O	inconclusive: 100 µM [inhibitor, partial curve, poor fit]
CC1=C[C@@H](CNC(=O)CCC(=O)O)[C@H](C(C)C)C[C@H]1CC(=O)N1CCN(C)CC1	inactive
O=C([C@@H]1C[C@H](Oc2cccnc2)CN1S(=O)(=O)c1ccc2c(c1)CCC2)N1CCCC1	inconclusive: 50.1 µM [inhibitor, partial curve, poor fit]
Cc1nn(-c2ccccc2)c2c1C(C(C)C)N(C1CCN(C(=O)Cc3cccc(Cl)c3)CC1)C2=O (stereo not drawn)	inactive
CCc1ccc(NC(=O)Cn2c(C)ccc(NS(=O)(=O)c3ccc(C)cc3)c2=O)cc1	inactive

Compound	Potency
COc1ccccc1-c1ccc(CN2CCC(NC(=O)c3ccc(C(F)(F)F)cc3)C2)cc1 (stereo not drawn)	active: 25.1 µM
CCCc1noc(-c2cn(C3CCN(C(=O)c4ccc(OC)cc4OC)CC3)nn2)n1	inconclusive: 39.8 µM [inhibitor, full curve, poor fit]
COc1ccc2[nH]c3c(c2c1)CCN(C)C31CCN(C(=O)c2ccc(C)nc2)CC1	inconclusive: 100 µM [inhibitor, single point]
C[C@@H]1CN(Cc2cc(C(N)=O)oc2C(C)(C)C)CC[C@@]1(O)C1CCC1	inactive
COc1ccccc1C(=O)N1CCCn2nc(C)c(-c3ccccc3N3CCCC3)c21	active: 56.2 µM
COc1ccccc1-c1cccc(CN2CCCC(C(=O)N3CCN(C(C)=O)CC3)C2)c1 (stereo not drawn)	inconclusive: 56.2 µM [inhibitor, partial curve, poor fit]
O[C@@H]1C[C@@H](c2nc(-c3ccc(OC(F)(F)F)cc3)no2)N(C2CCOCC2)C1	inconclusive: 100 µM [inhibitor, partial curve, poor fit]
CC1(C(=O)Nc2ccc(F)c(Cl)c2)COCc2cnc(Nc3ccccc3)nc21 (stereo not drawn)	inconclusive: 63.1 µM [inhibitor, partial curve, poor fit]
COc1ccc(-c2noc(-c3nc(-c4ccc(OC)c(OC)c4)no3)n2)cc1OC	inactive
O=C1NC(=NC2CCCC2)C2(CCCN(CC3CC3)C2)N1c1cc(F)cc(F)c1 (stereo not drawn)	inconclusive: 35.5 µM [inhibitor, partial curve, poor fit]
O=C(NC1CCCCC1)C1Cn2cccc2C(=O)N1Cc1ccccc1 (stereo not drawn)	inactive
COc1ccc(-c2noc(-c3cccn3CC(=O)Nc3c(C)cccc3Cl)n2)cc1F	inactive
Cc1cc(C)n(Cc2ccc(C(=O)NCC3Cn4cccc4CN3Cc3ccccc3)o2)n1 (stereo not drawn)	inconclusive: 79.4 µM [inhibitor, single point]
O=C1CCN(S(=O)(=O)c2ccccc2)CCCN(C(=O)CCc2c[nH]c3ccccc23)CCN1	inconclusive: 56.2 µM [inhibitor, partial curve, poor fit]
Cc1cc(C)c(CN2CCC3(CCCN(C)C3=O)C2)c(-n2cccn2)c1 (stereo not drawn)	inconclusive: 79.4 µM [inhibitor, partial curve, poor fit]
Cn1ccc2c(C(=O)NCCC(N)=O)nc(-c3cccc(CO)c3)cc21	inactive
COc1ccc(NC(=O)c2ccc3oc(-c4cccnc4OC)nc3c2)cc1	inconclusive: 10 µM [inhibitor, full curve, poor fit]
O=C(c1cccc(F)c1)N1CCN(c2cc(-c3cccs3)[nH]n2)CC1	inconclusive: 79.4 µM [inhibitor, single point]
Cc1nc2c(c(-c3ccc(Cl)cc3)n1)CCN([S+](=O)([O-])c1c(C)noc1C)CC2	inconclusive: 50.1 µM [inhibitor, partial curve, poor fit]
CC(C)NC(=O)N1CCNc2cnc(Nc3cccc(F)c3)nc2C1	inconclusive: 89.1 µM [inhibitor, partial curve]
FC(F)(F)c1ccc(N2C3CCC2CN(CC2CCCC2)C3)cc1	inconclusive: 79.4 µM [inhibitor, partial curve]

Compound	Potency
Cn1nccc1CN1CC(Oc2ccc(F)cc2F)C1	inactive
CN1c2cc(C(=O)NCc3ccccc3Br)ccc2C(=O)N2CCCCC21 (stereo not drawn)	inconclusive: 89.1 µM [inhibitor, single point]
CCCCn1c(=O)[nH]c2cccnc21	inactive
CCOC(=O)C1(Cc2ccccc2F)CCCN(C(=O)c2c(C)nc3sccn23)C1 (stereo not drawn)	inconclusive: 50.1 µM [inhibitor, partial curve, poor fit]
O=C(Nc1ccc2c(c1)CN(Cc1ccccc1F)C(=O)CO2)c1ccc(F)cc1	inconclusive: 56.2 µM [inhibitor, partial curve, poor fit]
CC1(C)[C@H](Cc2cc(CN3CCN(c4ccccc4)CC3)on2)C[C@@H]1NC(=O)Nc1ccc(F)cc1	inconclusive: 17.8 µM [inhibitor, full curve, poor fit]
Cc1cnc(CCNC(=O)CC(C)C)n1Cc1ccc(F)cc1	inactive
N[C@@H](Cc1cnc[nH]1)C(=O)N1CCC(c2nccn2Cc2ccccn2)CC1	inconclusive: 22.4 µM [inhibitor, full curve, poor fit]
CN(Cc1cccnc1)c1ccc2ncc(Nc3ccc4c(c3)OCO4)n2n1	inconclusive: 79.4 µM [inhibitor, partial curve, poor fit]
O=C(NCc1ccco1)C1CN(S(=O)(=O)c2ccccc2)CC12CCCCC2 (stereo not drawn)	inconclusive: 89.1 µM [inhibitor, single point]
CCOC(=O)[C@@H]1CN(C(=O)OCc2ccccc2)[C@H]2c3ccccc3O[C@@H]12	inconclusive: 25.1 µM [inhibitor, partial curve, poor fit]
CCOc1ccccc1NC(=O)Nc1ccc(-c2nnc3n2CCCC3)cc1	inactive
COc1ccc(OCC(O)CN2CCC(=O)N(CC3CC3)Cc3cc4c(cc32)OCO4)cc1 (stereo not drawn)	inconclusive: 50.1 µM [inhibitor, partial curve, poor fit]
OC[C@@H]1CN(CC2CC2)C[C@H]1c1nc(-c2cccnc2)no1	inactive
CCCn1ccc2sc(C)c(C(=O)NCc3ccccc3)c2c1=O	inconclusive: 50.1 µM [inhibitor, partial curve, poor fit]
COc1ccc(-c2cc(N3CCC(NC(=O)c4ccccc4Cl)C3)n[nH]2)cc1 (stereo not drawn)	inconclusive: 44.7 µM [inhibitor, partial curve, poor fit]
O=C(Nc1ccc2ncnc(N3CCCCC3)c2c1)c1ccccc1Cl	inconclusive: 50.1 µM [inhibitor, partial curve, poor fit]
Cc1ccc(NC(=O)Cn2c(C)cc3nc4n(c(=O)c32)CCCCC4)cc1	inconclusive: 79.4 µM [inhibitor, single point]
COc1cccc(-c2noc(CC3CCN(C(=O)c4cccc(Cl)c4)CC3)n2)c1	inconclusive: 44.7 µM [inhibitor, partial curve, poor fit]
COCCC(=O)N1CCC2(CC1)NCCc1c2[nH]c2ccccc12	inconclusive: 89.1 µM [inhibitor, single point]
O=C1CCN(CC(O)COCc2ccco2)c2ccsc2CN1Cc1ccccc1 (stereo not drawn)	inconclusive: 50.1 µM [inhibitor, partial curve, poor fit]
